The values that follow come from the supplement of paper PMC4604168 (melanoma cell lines).

Among the test systems are WM115; WM1716; WM1745; WM3526; WM3619; WM451Lu.
Common to all, as to assay: cell count relative to DMSO control; melanoma cells; higher = more viable cells
Details in all cases: library dose: low library concentration; 72 h; first compound 0.4 µM

The list shows a part of the results. Single values are uncertain, as repeats are few or missing.
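Also: cell number obtained by counting DAPI-stained nuclei in high-throughput microscope images with image analysis software, screen run in 1,536-well plates.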

Regarding `C[C@@H](N)c1ccc(C(=O)Nc2ccnc3[nH]ccc23)cc1` + COC(=O)c1sccc1S(=O)(=O)Nc1ccc(Nc2ccccc2)cc1OC [GSK0660] (partner dose 1 µM), the cell count in the test with WM115 was 98.9%; in the test on WM1716, 63.7%; in the test on WM1745 it was 90.7%; in the test on WM3526, 109%; in the test with WM3619, 98.1%; with WM451Lu, 95.2%.
Regarding `C[C@@H](N)c1ccc(C(=O)Nc2ccnc3[nH]ccc23)cc1` + Cc1cc([N+](=O)[O-])ccc1NS(=O)(=O)c1cc(Cl)ccc1Cl [FH535] (partner dose 1 µM), the cell count in the test on WM115 was found to be 93.5%; in the test with WM1716 it was 70.1%; in the test on WM1745, 79.1%; with WM3526, 115%; in the test on WM3619 it was 112%; in the test on WM451Lu, 98.3%.
Regarding `C[C@@H](N)c1ccc(C(=O)Nc2ccnc3[nH]ccc23)cc1` + O=S(=O)(c1ccccc1)N(CC(F)(F)F)c1ccc(C(O)(C(F)(F)F)C(F)(F)F)cc1 [T0901317] (partner dose 1.4 µM), the cell count is 108% in the test on WM115; 66.4% in the test with WM1716; 69.7% in the test with WM1745; 94.3% with WM3526; 99.1% with WM3619; 74.7% with WM451Lu.
Turning to `CCCCCCCCCCCCCCCCCCOP(=O)([O-])OC1CC[N+](C)(C)CC1` [Perifosine] + CC(C)(C)c1cnc(CSc2cnc(NC(=O)C3CCNCC3)s2)o1 [SNS-032] (partner dose 0.01 µM), the cell count in the test with WM115 was determined as 82.4%; in the test with WM1716, 79.7%; in the test with WM1745 it was 70.8%; with WM3526 it was 94.5%; in the test on WM3619 it was 84%; in the test with WM451Lu, 121%.
With `C[C@@H](N)c1ccc(C(=O)Nc2ccnc3[nH]ccc23)cc1` + CCCCCCCCCCCC1=C(O)C(=O)C=C(O)C1=O [Embelin] (partner dose 1.2 µM), the cell count in the test on WM115 came out at 112%; in the test on WM1716, 63.2%; in the test on WM1745 it was 76.9%; with WM3526, 93.3%; in the test on WM3619 it was 85.6%; with WM451Lu, 89.3%.
As for `Cn1sc(=O)n(Cc2ccccc2)c1=O` + Cn1c(Nc2ccc(C(F)(F)F)cc2)nc2cc(Oc3ccnc(-c4ncc(C(F)(F)F)[nH]4)c3)ccc21 [CHIR265] (partner dose 0.08 µM), the cell count in the test with WM115 came out at 58.9%; with WM1716 it was 79.4%; with WM1745, 72.8%; in the test with WM3526 it was 63%; in the test on WM3619 it was 59.2%; in the test on WM451Lu it was 96.2%.
As for `CCCCCCCCCCCCCCCCCCOP(=O)([O-])OC1CC[N+](C)(C)CC1` [Perifosine] + O=c1[nH]nc(Sc2ncc([N+](=O)[O-])s2)n1-c1ccc2c(c1)OCCO2 [BI78D3] (partner dose 0.2 µM), the cell count was found to be 112% in the test on WM115; 109% with WM1716; 99.3% in the test with WM1745; 109% in the test with WM3526; 109% in the test with WM3619; 94.2% in the test on WM451Lu.
As for `CCCCCCCCCCCCCCCCCCOP(=O)([O-])OC1CC[N+](C)(C)CC1` [Perifosine] + NCC(=O)Nc1ccc(-n2nc(C(F)(F)F)cc2-c2ccc3c(ccc4ccccc43)c2)cc1 [OSU03012] (partner dose 1 µM), the cell count worked out at 83.1% with WM115; 99.6% with WM1716; 119% in the test with WM1745; 50.8% with WM3526; 114% with WM3619; 61.7% in the test with WM451Lu.
With `C[C@@H](N)c1ccc(C(=O)Nc2ccnc3[nH]ccc23)cc1` + COc1ccc(Cl)c(Nc2nc3ccccc3nc2NS(=O)(=O)c2cccc(NC(=O)C(C)(C)N)c2)c1 [XL147] (partner dose 0.8 µM), the cell count amounted to 105% with WM115; 68.7% with WM1716; 60.4% in the test on WM1745; 131% with WM3526; 78.9% in the test on WM3619; 83.2% in the test on WM451Lu.
`C[C@@H](N)c1ccc(C(=O)Nc2ccnc3[nH]ccc23)cc1` + NC(=O)c1ccc(N(C(N)=O)c2c(F)cccc2F)nc1-c1ccc(F)cc1F [VX702] (partner dose 0.4 µM): the cell count in the test on WM115 was 114%; in the test with WM1716 it was 71.3%; in the test on WM1745 it was 82.2%; in the test on WM3526 it was 109%; in the test with WM3619 it was 123%; in the test with WM451Lu it was 96.3%.
Turning to `C[C@@H](N)c1ccc(C(=O)Nc2ccnc3[nH]ccc23)cc1` + O=C1NC(=O)/C(=C/c2ccc(-c3ccc(F)cc3O)o2)S1 [AS252424] (partner dose 1 µM), the cell count in the test on WM115 is 109%; in the test with WM1716, 61%; in the test on WM1745 it was 82.7%; in the test on WM3526, 92.9%; in the test with WM3619 it was 95.7%; with WM451Lu it was 100%.
As for `C[C@@H](N)c1ccc(C(=O)Nc2ccnc3[nH]ccc23)cc1` + COc1cc(N2CCC(N3CCN(C)CC3)CC2)ccc1Nc1ncc(Cl)c(Nc2ccccc2S(=O)(=O)C(C)C)n1 [NVP-TAE684] (partner dose 0.08 µM), the cell count in the test on WM115 is 106%; in the test with WM1716, 66.8%; in the test with WM1745, 60.5%; in the test on WM3526, 104%; in the test on WM3619 it was 72.4%; in the test with WM451Lu, 85.3%.
`Cn1sc(=O)n(Cc2ccccc2)c1=O` + CCCCCCCCCCCC1=C(O)C(=O)C=C(O)C1=O [Embelin] (partner dose 1.2 µM): the cell count stood at 101% in the test on WM115; 102% in the test on WM1716; 79.5% with WM1745; 108% with WM3526; 97.4% in the test with WM3619; 98.9% in the test with WM451Lu.
Consider `C[C@@H](N)c1ccc(C(=O)Nc2ccnc3[nH]ccc23)cc1` + Cc1cc(Nc2cc(N3CCN(C)CC3)nc(/C=C/c3ccccc3)n2)n[nH]1 [ENMD2076] (partner dose 0.04 µM), for which the cell count with WM115 turned out to be 102%; with WM1716, 65.5%; in the test on WM1745, 61.2%; in the test on WM3526, 111%; with WM3619 it was 93.3%; with WM451Lu, 72.4%.
Turning to `CCCCCCCCCCCCCCCCCCOP(=O)([O-])OC1CC[N+](C)(C)CC1` [Perifosine] + O=c1cc(-c2cccc3c2Sc2ccccc2S3)oc(N2CCOCC2)c1 [KU55933] (partner dose 1 µM), the cell count was 106% in the test on WM115; 110% in the test on WM1716; 73.7% in the test with WM1745; 69.7% in the test on WM3526; 90.8% in the test with WM3619; 93.9% with WM451Lu.
For the compound `Cn1sc(=O)n(Cc2ccccc2)c1=O` + Oc1cc(-c2nc(-c3ccccc3)[nH]c2-c2ccncc2)ccc1Cl [L779450] (partner dose 0.2 µM), the cell count with WM115 worked out at 79.1%; with WM1716, 91.4%; in the test with WM1745, 103%; in the test on WM3526, 89.8%; in the test on WM3619, 96.4%; in the test on WM451Lu, 106%.
